The list shows a part of the results. Single values of this set are uncertain.
System: U2OS
Experiment: Cell Painting induction (percent of morphological features significantly changed vs DMSO); higher = stronger morphological change
Settings: 10 µM, 20 h
Procedure: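 Cell Painting assay in U2OS cells: compounds at 10 µM for 20 h, six dyes, 579 robust CellProfiler features as Z-scores vs DMSO median (MAD). Induction is the % of significantly changed features (active if ≥5%); relative cell count is in % of DMSO. The primary run holds DCM compounds preselected for induction ≥10%; the confirmation repeat defines active compounds (370 of 549). Replicate agreement is low, attributed to precipitation.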

[1] = run: primary screen (compounds selected for induction >=10%)
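Also: stains mark DNA, RNA and nucleoli, ER, actin, Golgi, plasma membrane and mitochondria, read by high-content imaging, with DMSO controls at matching solvent concentration.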

Row | SMILES | Cell Painting induction (run: confirmation repeat) | Cell Painting induction [1]
1 | CCN(CCCNC(=O)CN1C(=O)COc2ccc(S(=O)(=O)N3CCC(C)CC3)cc21)Cc1ccccc1 | active: 39.7% | 37.3%
2 | Fc1ccccc1/C=C1\CCCC2=C1Nc1nnnn1C2c1ccccc1F (stereo not drawn) | active: 29.7% | 11.2%
3 | COc1ccc(-c2cnnn2-c2ccc(NC(=O)/C=C/c3ccc(OC)c(OC)c3)cc2)cc1 | active: 12.8% | 10.4%
4 | CCN(CC)CCN1C(=O)[C@@H]2C(C(=O)Nc3cccc(SC)c3)[C@@H]3C=C[C@]2(O3)C1C(=O)NC1CCCC(C)C1C (stereo partly drawn) | active: 58.5% | 56%
5 | CCC1Oc2ccc(C)cc2N(CC(=O)NCCCN2CCN(Cc3ccccc3)CC2)C1=O (stereo not drawn) | active: 16.9% | 16.9%
6 | CCCCCCOc1ccccc1/C=N/NC(=O)COc1ccc(C)c(C)c1 | inactive: 2.6% | 12.8%
7 | Cc1cccn2c(=O)c3cc(C(=O)NC4CCCCC4)n(C)c3nc12 | inactive: 1% | 32.8%
8 | Cc1ccc(S(=O)(=O)c2nc(-c3ccccc3Br)oc2N(C)C)cc1 | active: 29% | 19.5%
9 | COc1nnc(-c2ccc(N3CCOCC3)c(NC(=O)C3CCCCC3)c2)c2ccccc12 | inactive: 0.5% | 19.3%
10 | CC(C)(C)c1cc(S(=O)(=O)CCc2ccncc2)cc(C(C)(C)C)c1F | active: 31.6% | 44.7%
11 | COc1ccc(CNC(=O)OCc2nccnc2C(=O)Nc2ccc(Br)cn2)cc1 | active: 35.9% | 53%
12 | Cc1ccc2nc(N(CCCN(C)C)C(=O)c3ccc(S(=O)(=O)N(C)C)cc3)sc2c1 | active: 13.3% | 17.1%
13 | COc1ccc(C)cc1S(=O)(=O)n1cnc2ccccc21 | active: 53.2% | 41.6%
14 | Nc1nc(CN2CCN(c3ccccc3)CC2)nc(Nc2ccc(Cl)cc2)n1 | active: 18.8% | 11.9%
15 | COc1ccc(NC(=O)Cn2cnc3c(nnn3-c3ccc(C)cc3)c2=O)cc1 | inactive: 0.3% | 13.6%
16 | CCO/C(O)=C1\C(C)=Nc2nc3ccccc3n2C1c1cc(OC)c(OC)cc1OC (stereo not drawn) | active: 5% | 10.4%
17 | CC(C)CC(=O)N1c2ccccc2N=C2CC(C)(C)CC(O)=C2C1c1ccc(N(C)C)cc1 (stereo not drawn) | active: 13.3% | 10.7%

Row | SMILES | Cell Painting induction (run: confirmation repeat) | Cell Painting induction [1]
18 | COc1cc(C(=O)OCCNC(=O)c2ccccc2)cc(OC)c1OC | inactive: 3.3% | 16.2%
19 | CN1CCN(CCCNC(=O)c2ccc(Cn3c(=S)[nH]c4ccc(Br)cc4c3=O)cc2)CC1 | active: 28.5% | 33.2%
20 | COc1ccc(-c2c(C)nn3c(N4CCC5(CC4)OCCO5)cc(C)nc23)cc1OC | active: 13.1% | 11.2%
21 | Cc1ccc2oc(=O)c3cc(C(=O)Nc4cc(-c5cccc(F)c5)no4)sc3c2c1 | inactive: 0.2% | 20.6%
22 | CCOC(=O)C1CCCN(C(=O)c2ccc3c(c2)N(Cc2ccccc2)C(=O)c2ccccc2S3=O)C1 (stereo not drawn) | inactive: 4.1% | 10.9%
23 | CCCC(=O)Nc1cc(-c2nn(C)c(=O)c3ccccc23)ccc1N1CCCCC1 | active: 12.3% | 11.9%
24 | COc1ccc(OC)c(CN2CCN(Cc3cc(OC)c(OC)c(OC)c3)CC2)c1 | inactive: 0.5% | 10.2%
25 | O=C(CN1C(=O)CSc2ccc(S(=O)(=O)N3CCCCCC3)cc21)NCCc1ccccc1 | active: 7.1% | 11.9%
26 | CCn1cc(C(=O)N2CCN(c3ccccn3)CC2)c(=O)c2cc(S(=O)(=O)N(C)C3CCCCC3)ccc21 | inactive: 3.5% | 12.4%
27 | CCN(CC)Cc1nc(O)c2c(n1)-c1ccccc1CC2(CC)CC | active: 16.6% | 31.8%
28 | CCOc1ccc(NC(=O)C(=O)NCCN2CCN(S(=O)(=O)c3ccc(C)cc3)CC2)cc1 | inactive: 0.2% | 30.9%
29 | CC(C)c1ccc(NC(=O)C2CCN(S(=O)(=O)c3ccc4c(c3)C(C)(C)C(=O)N4C)CC2)cc1 | active: 27.6% | 42.7%
30 | O=C1CC(NCCN2CCOCC2)C(=O)N1Cc1ccc(N2CCCC2=O)cc1 (stereo not drawn) | active: 17.1% | 19.5%
31 | CCC1=Nc2cc(C(=O)NCCCN3CCOCC3)ccc2Sc2ccc(Br)cc21 | active: 50.6% | 37.5%
32 | Cc1ccc(C(=O)c2coc3ccc(O)c(CN(C)C)c23)cc1 | active: 12.1% | 11.4%
33 | COc1ccc(NC(=O)c2cc(S(=O)(=O)N3CCCC3)cn2C)cc1Cl | active: 41.6% | 43%
34 | Cc1cc2c3c([nH]c2cc1S(=O)(=O)NCc1ccc(CN2CCCCCC2)o1)CC(C)(C)CC3=O | active: 33.3% | 43.5%
